Laboratory results from PubChem BioAssay AID1347165 (National Center for Advancing Translational Sciences (NCATS), 2019).
The campaign covered roughly 220,000 compounds. About 5,700 (2.6%) were called active. Inconclusive means that the source gave no clear call. Such entries were picked first, then a sample of the others. Calls follow the shape of the dose curve; as a rule, active = well fitted inhibition curve with a large enough effect; inconclusive = small, poorly fitted or top-dose-only effect; inactive = no such curve, though single readings can be large or run the other way. A potency beside an inconclusive call is a rough fit, not a confirmed value.

target: Lysine-specific demethylase 5B (Homo sapiens) (UniProt Q9UGL1); experiment: Primary screen for KDM5B Histone Demethylases FDH-coupled qHTS; conditions: FDH-coupled NADH fluorescence (FDH is formaldehyde dehydrogenase); activity change, negative = inhibition: at 57.7 µM (top of the series) unless noted; also: nearly all actives have a fitted effect of over 70% in size; as to activity change, negative = inhibition: 0% is about no effect
Outline: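 Coupled FDH/NAD⁺ fluorescence readout. KDM5BΔAP 200 nM final; compound titration, 10 min RT preincubation; substrate mix 12.5 µM H3K4me3, 25 µM 2-OG, 50 µM Fe(II), 100 µM ascorbate, 0.25 mM NAD⁺, 0.25 U/mL FDH; ΔRFU over 30 min.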
Potency is read from the fitted curve at half-maximal effect; tags tell the direction and shape of the fitted curve.

Chain of UniProt Q9UGL1 (Q9UGL1 whole entry, looked up): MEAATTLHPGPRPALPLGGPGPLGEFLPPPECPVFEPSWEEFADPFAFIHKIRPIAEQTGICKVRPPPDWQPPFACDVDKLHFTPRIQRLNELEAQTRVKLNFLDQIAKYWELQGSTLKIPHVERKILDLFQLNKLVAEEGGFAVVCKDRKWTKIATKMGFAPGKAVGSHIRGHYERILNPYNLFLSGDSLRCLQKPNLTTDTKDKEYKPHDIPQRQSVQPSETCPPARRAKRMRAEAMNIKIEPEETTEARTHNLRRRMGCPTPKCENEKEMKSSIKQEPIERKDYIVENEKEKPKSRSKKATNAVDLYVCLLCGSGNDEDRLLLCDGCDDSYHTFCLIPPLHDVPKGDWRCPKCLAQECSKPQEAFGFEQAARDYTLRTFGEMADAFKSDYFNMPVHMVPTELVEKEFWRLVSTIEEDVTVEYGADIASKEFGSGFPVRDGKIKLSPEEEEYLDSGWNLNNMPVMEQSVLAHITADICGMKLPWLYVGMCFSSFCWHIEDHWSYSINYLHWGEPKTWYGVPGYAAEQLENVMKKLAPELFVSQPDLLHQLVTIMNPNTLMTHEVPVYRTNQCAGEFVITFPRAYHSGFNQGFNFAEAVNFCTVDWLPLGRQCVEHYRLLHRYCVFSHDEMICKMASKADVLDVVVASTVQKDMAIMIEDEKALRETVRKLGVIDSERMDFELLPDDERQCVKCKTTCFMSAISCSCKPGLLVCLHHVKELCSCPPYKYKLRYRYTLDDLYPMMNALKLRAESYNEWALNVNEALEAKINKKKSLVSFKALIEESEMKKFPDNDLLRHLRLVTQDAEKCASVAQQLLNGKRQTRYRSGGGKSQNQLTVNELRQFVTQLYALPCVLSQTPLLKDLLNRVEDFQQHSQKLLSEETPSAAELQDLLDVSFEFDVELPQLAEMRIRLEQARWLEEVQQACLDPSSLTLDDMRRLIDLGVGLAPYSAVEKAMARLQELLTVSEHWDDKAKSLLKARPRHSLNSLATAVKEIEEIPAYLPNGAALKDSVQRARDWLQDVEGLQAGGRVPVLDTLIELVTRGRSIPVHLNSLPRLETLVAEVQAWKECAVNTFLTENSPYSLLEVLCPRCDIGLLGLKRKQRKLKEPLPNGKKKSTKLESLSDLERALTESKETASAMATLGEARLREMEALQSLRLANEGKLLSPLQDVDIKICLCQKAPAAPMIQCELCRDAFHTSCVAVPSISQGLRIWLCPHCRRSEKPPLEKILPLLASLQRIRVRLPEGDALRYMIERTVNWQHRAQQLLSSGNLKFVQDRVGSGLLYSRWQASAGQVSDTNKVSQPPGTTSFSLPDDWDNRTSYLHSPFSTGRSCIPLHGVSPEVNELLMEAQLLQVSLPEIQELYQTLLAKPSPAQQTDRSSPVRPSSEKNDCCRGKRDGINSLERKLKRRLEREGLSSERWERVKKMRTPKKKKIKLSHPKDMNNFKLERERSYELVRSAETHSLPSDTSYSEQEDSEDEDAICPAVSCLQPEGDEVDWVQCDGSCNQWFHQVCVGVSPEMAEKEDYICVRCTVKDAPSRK

SMILES | Potency | activity change, negative = inhibition
Cc1ccc(NC(=O)c2cc(-c3ccc4c(c3)OCO4)on2)cc1 | inconclusive: 22.4 µM [inhibitor, partial curve, poor fit] | –
CC(=O)c1ccc(N2CCN(C(=O)CCc3ncc(-c4ccc(C)c(C)c4)o3)CC2)c(F)c1 | inactive | –
CN1CCCC1=NCCCn1cnc2c1c(=O)n(C)c(=O)n2C | inactive | –
COc1cccc(/C=C/c2nc(C#N)c(N(C)Cc3ccccc3)o2)c1 | inconclusive: 11.2 µM [inhibitor, partial curve, poor fit] | –
Cc1[nH]c(SC(C)C(=O)Nc2cccc(S(=O)(=O)N3CCCCC3)c2)nc1Cc1ccccc1 (stereo not given) | inactive | –
COCCCNC(=O)CN1C(=O)c2c(c3ccccc3n2C)C1c1ccc(OC)cc1 (stereo not given) | inconclusive: 31.6 µM [inhibitor, partial curve, poor fit] | –
Fc1ccc(CNc2nc3c(-c4ccc(F)cc4)nnn3c3ccccc23)cc1 | inactive | –
N#Cc1nc(C2CC2)oc1N1CCN(C(=O)c2ccc[nH]c2=O)CC1 | inactive | –
Cn1ccnc1-c1ccc(N2CCC(CO)(CCOc3ccccc3)CC2)nn1 | active: 28.2 µM | –
Cc1c(C)n(CCCN2CCOCC2)c2ncn3nc(COc4ccc(Cl)cc4)nc3c12 | inactive | –
COCCNc1ncccc1-c1noc([C@@H]2CCCN2Cc2ccccn2)n1 | active: 31.6 µM | –
NCc1c(O)ccc2ccccc12 | inconclusive: 22.4 µM [inhibitor, partial curve, poor fit] | –
CCN(Cc1ccccc1)S(=O)(=O)c1ccc(F)c(C(=O)Nc2cc(C)ccc2OC)c1 | – | inconclusive: -34.8% [inhibitor]
Cc1cc(C)c2ccc(=O)n(CC(=O)N/N=C/c3ccccc3Cl)c2n1 | inconclusive: 39.8 µM [inhibitor, single point] | –
Cc1cccc(NC(=O)C2CCN(S(=O)(=O)c3c(C)noc3/C=C/c3ccco3)CC2)c1 | inconclusive: 11.2 µM [inhibitor, partial curve, poor fit] | –
COc1ccccc1N1CCN([C@@H]2[C@H](O)[C@H](CO)O[C@@H]2CNC(=O)c2cccs2)CC1 | inconclusive: 22.4 µM [inhibitor, partial curve] | –
Cc1cccc(CNC(=O)c2nnn3cc(C)[nH]c(=O)c23)c1 | inconclusive: 31.6 µM [inhibitor, partial curve, poor fit] | –
CCOc1ccccc1NC(=O)C(=O)c1c[nH]c2c(CC)cccc12 | inactive | –
COCCOC1CCOC2(CCN(C(=O)NCc3ccccc3)CC2)C1 (stereo not given) | inconclusive: 25.1 µM [inhibitor, partial curve, poor fit] | –
O=S(=O)(Nc1nc2ccccc2nc1NCC1CCCO1)c1cc(Cl)ccc1Cl (stereo not given) | inconclusive: 39.8 µM [inhibitor, partial curve, poor fit] | –
Cc1ccc2nc(-c3cccc(Br)c3)cc(C(=O)NC3CC3)c2c1 | inconclusive: 28.2 µM [inhibitor, single point] | –
O=C1C(Nc2ccccc2)=CC(c2ccccc2F)N1c1ccccc1 (stereo not given) | inconclusive: 22.4 µM [inhibitor, partial curve, poor fit] | –
COc1ccc(CNC(=O)[C@@H]2Cc3nc[nH]c3CN2Cc2ccc(Cl)cc2)cc1 | inconclusive: 39.8 µM [inhibitor, partial curve, poor fit] | –
COc1ccc(CN2CC(OCc3cccnc3)CN(C(=O)c3csc(C)n3)CC2=O)cc1 (stereo not given) | inconclusive: 25.1 µM [inhibitor, single point] | –

SMILES | Potency | activity change, negative = inhibition
Cc1ccc([N+](=O)[O-])cc1NC(=O)Cn1cnc2c1c(=O)n(C)c(=O)n2C | inactive | –
O=S(=O)(c1cccnc1)N1CCCC2(C1)Nc1cccnc1NC2=NCc1ccccc1 (stereo not given) | active: 28.2 µM | –
CCN1C(=O)C2CC3(CCN(Cc4ccc(F)c(F)c4)CC3)CN2C1=O (stereo not given) | inactive | –
CCCNc1c(NC(=O)NCc2cccc(OC)c2)c(=O)oc2ccccc12 | inconclusive: 31.6 µM [inhibitor, single point] | –
COc1cc(F)ccc1-c1cc2c(ccn2Cc2ccncc2)c(N2CCOCC2)n1 | active: 35.5 µM | –
COc1ccccc1CCNC(=O)c1sc(NC(C)C)nc1C | inactive | –
O=C(c1cccc2[nH]ccc12)N1CCC(Cc2nncn2Cc2ccccc2)C1 (stereo not given) | inconclusive: 31.6 µM [inhibitor, single point] | –
Cc1ccc(C)c(S(=O)(=O)n2nc(C)c(S(=O)(=O)N3CCCCCC3)c2C)c1 | inconclusive: 39.8 µM [inhibitor, single point] | –
CCc1noc(-c2ccn3c(CNC(=O)c4cc(C)ccc4C)nnc3c2)n1 | active: 25.1 µM | –
CN1CCN(c2ccc(-c3noc([C@@H]4CCCN4Cc4ccccc4)n3)cn2)CC1 | inconclusive: 28.2 µM [inhibitor, partial curve] | –
NC(Cc1ccccc1)C(=O)N1CCN(c2ccccn2)CC1 (stereo not given) | active: 22.4 µM | –
O=C(c1ccc(Cl)s1)N1CCC(N(C(=O)C2CC2)C2CCOCC2)CC1 | inactive | –
COc1ccc(C(=O)N2CCC(N3C(=O)[C@H](OC)[C@@H]3c3ccncc3)CC2)c(OC)c1 | inactive | –
O=C(NC1CCc2nnc(C3CC3)n2CC1)c1cccs1 (stereo not given) | inactive | –
COC1CN(c2cccc(F)c2)C12CCN(C(=O)c1sc(C)nc1C)CC2 (stereo not given) | inactive | –
Cc1ccccc1-c1cc(-c2ccc(=O)[nH]c2)c2cncn2c1 | active: 35.5 µM | –
CCn1nnc(NCc2ccc(Cl)cc2Cl)n1 | inactive | –
COc1ccc(-c2ccc3nnc(CNC(=O)COc4ccccc4)n3n2)cc1 | active: 28.2 µM | –
CN(C)C(=O)c1nc(-c2ccc(F)cc2)c2cnccn12 | active: 35.5 µM | –
COc1ccc(-c2nc(CNC(=O)Nc3ccc(C)c(Cl)c3)c(C)o2)cc1 | inconclusive: 39.8 µM [inhibitor, partial curve, poor fit] | –
COc1cccc(NC(=O)Cn2c(=O)n(Cc3ccc(C(=O)NCc4ccc(C)cc4)cc3)c(=O)c3ccccc32)c1 | inconclusive: 25.1 µM [inhibitor, partial curve, poor fit] | –
CC(=O)c1ccc(C(=O)N(CCCN(C)C)c2nc3ccc(Br)cc3s2)cc1 | inactive | –
CCOC(=O)c1c(C)n(-c2ccccc2)c2ccc(OC(=O)c3c(F)cccc3F)cc12 | inconclusive: 17.8 µM [inhibitor, partial curve, poor fit] | –
CCOc1ccc(Cn2c(CNS(=O)(=O)c3ccc(C(C)(C)C)cc3)nc3cccnc32)cc1 | inconclusive: 50.1 µM [inhibitor, single point] | –

SMILES | Potency | activity change, negative = inhibition
Cc1ccc(-c2cc(O)c3c(c2)CNCCO3)s1 | inconclusive: 22.4 µM [inhibitor, single point] | –
CCOc1ccccc1CNC(=O)c1oc2c(c1C)-c1nn(Cc3cccc(Cl)c3)cc1CC2 | inconclusive: 11.2 µM [inhibitor, partial curve, poor fit] | –
CCCCC(=O)N/N=C(\C)Cc1ccccc1 | inactive | –
COc1ccc2cc(C(=O)N3CCN(c4ccccc4O)CC3)c(C)nc2c1 | inconclusive: 22.4 µM [inhibitor, single point] | –
Cc1ccc(NC(=O)C2CCCN2S(=O)(=O)c2cccc3cccnc23)c(C)c1 (stereo not given) | inconclusive: 2 µM [inhibitor, full curve, poor fit] | –
O=C(O)C[C@@H]1CCN(C(=O)C2CCCCC2)C[C@@H]1CCN(CCN1CCOCC1)c1ccccc1 | inconclusive: 14.1 µM [inhibitor, partial curve] | –
O=C(Cc1ccc(NC(=O)N2CCSc3ncccc32)cc1)NCc1cccc(Cl)c1 | inconclusive: 28.2 µM [inhibitor, partial curve, poor fit] | –
COc1ccc(CNC(C)C)c2ccccc12 | inconclusive: 20 µM [inhibitor, partial curve, poor fit] | –
CSc1ccccc1NC(=O)COc1ccc2c(c1)OCO2 | inconclusive: 25.1 µM [inhibitor, partial curve, poor fit] | –
O=C(Nc1ccc(Cl)c(Cl)c1)c1cc2n(n1)CC(c1ccc(Cl)cc1)OC2 (stereo not given) | active: 28.2 µM | –
NCCn1cc(C(=O)NCC(c2cccnc2)N2CCCCC2)nn1 (stereo not given) | inactive | –
O=C(NC1CCN(Cc2ccccc2)CC1)c1ccc(Cn2c(=O)c3ccccc3n(Cc3cccc(F)c3)c2=O)cc1 | – | inconclusive: -39% [inhibitor]
N#Cc1ccc(CN2CCN(C(=O)c3ccc(Cn4nnc5ccccc54)cc3)CC2)cc1 | inactive | –
O=C(Nc1ccccc1C(=O)OCc1cc(=O)n2ccsc2n1)c1ccccc1Cl | inconclusive: 39.8 µM [inhibitor, single point] | –
CCCN(CC1CCOC1)S(=O)(=O)c1ccc(OC)c(Cl)c1 (stereo not given) | inactive | –
CC(=O)Nc1ccc(C(=O)CSc2ccccc2Cl)cc1 | inactive | –
O=C(c1ccc(Br)o1)N1CCN(C2CCN(Cc3ccccn3)C2=O)CC1 (stereo not given) | inactive | –
CN(C)c1cccc(C(=O)N2CCCN(c3cc(-c4ccccc4)[nH]n3)CC2)c1 | inactive | –
COc1ccc2c(C)c(CC(=O)N3CCCC3)c(=O)oc2c1 | inconclusive: 22.4 µM [inhibitor, partial curve, poor fit] | –
O=C(COc1ccc(F)cc1)Nc1ccc2nc(SCCOc3ccccc3)sc2c1 | inconclusive: 1.12 µM [inhibitor, partial curve, poor fit] | –
COc1ccc(-c2ccc(=O)n(CC(=O)N3CCC(Cc4ccccc4)CC3)n2)cc1 | inconclusive: 28.2 µM [inhibitor, single point] | –
Cc1oc(-c2cccs2)nc1CC(=O)Nc1cccc(C(=O)N(C)C)c1 | inconclusive: 25.1 µM [inhibitor, partial curve, poor fit] | –
